# Experimental data from the supplement of paper PMC3334620.
# Over roughly 33,000 sequences, “E-score (-0.5 to 0.5)” has its median near -0.041; the highest 2% begin near 0.37. Some of the results follow.
# Molecular target: T1, Ecm22 (UniProt Q05958)
# T1 sequence: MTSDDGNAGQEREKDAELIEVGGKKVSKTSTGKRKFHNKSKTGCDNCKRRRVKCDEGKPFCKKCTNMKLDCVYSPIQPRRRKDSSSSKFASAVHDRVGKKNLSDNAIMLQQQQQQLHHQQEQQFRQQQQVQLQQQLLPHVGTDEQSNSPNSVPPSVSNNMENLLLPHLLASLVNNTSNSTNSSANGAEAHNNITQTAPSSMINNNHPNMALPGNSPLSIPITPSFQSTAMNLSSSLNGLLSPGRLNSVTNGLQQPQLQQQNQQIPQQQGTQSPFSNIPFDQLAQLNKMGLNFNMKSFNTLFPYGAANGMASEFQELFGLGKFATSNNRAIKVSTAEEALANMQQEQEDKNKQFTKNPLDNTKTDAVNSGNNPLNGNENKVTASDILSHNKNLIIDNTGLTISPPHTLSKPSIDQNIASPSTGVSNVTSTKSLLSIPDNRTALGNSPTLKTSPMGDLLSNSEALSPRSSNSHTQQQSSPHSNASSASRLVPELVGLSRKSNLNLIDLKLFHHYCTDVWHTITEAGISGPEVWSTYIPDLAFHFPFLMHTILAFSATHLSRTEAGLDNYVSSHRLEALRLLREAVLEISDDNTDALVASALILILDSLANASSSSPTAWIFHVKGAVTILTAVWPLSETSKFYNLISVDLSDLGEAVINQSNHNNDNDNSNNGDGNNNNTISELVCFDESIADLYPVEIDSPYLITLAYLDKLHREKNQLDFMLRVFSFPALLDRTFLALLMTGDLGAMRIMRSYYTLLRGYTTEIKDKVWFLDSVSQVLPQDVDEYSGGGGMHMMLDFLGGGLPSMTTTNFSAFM
# Assay: PBM E-score (8-mer binding enrichment) (E-score (-0.5 to 0.5)); higher = stronger / more preferred TF binding; most listed sequences are background and not binding sites
# Conditions: protein concentration: 200 nM; construct: GST-full length
# Experimental: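 Universal 'all 10-mer' protein binding microarrays (Agilent AMADID 015681) probed with GST-tagged S. cerevisiae TFs (full-length or DBD) made by in vitro transcription/translation (PURExpress), about 100-200 nM. Bound TF was detected with fluorescent anti-GST. Each ungapped 8-mer (which stands for itself and its reverse complement) is scored by the PBM enrichment score (E-score), a modified Wilcoxon-Mann-Whitney statistic from -0.5 to +0.5, computed with the Universal PBM Analysis Suite. Scale: above 0.35 generally sequence-specific binding.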
row,Sequence,PBM E-score
1,AACCCCTC,-0.173
2,ACCTTCCT,-0.175
3,CCGTAGAC,-0.0305
4,CAATAACG,0.0641
5,TATATTCA,0.173
6,GTATTGCA,-0.0224
7,CCAAGTGG,-0.168
8,CCCGATAA,0.039
9,TCTGTGAA,-0.0649
10,TAGTACCA,-0.124
11,CAGTTATA,0.027
12,CGCTCGGA,0.252
13,ATCCAAAC,0.0907
14,CGGCGCGC,0.154
15,AACCAGCC,-0.101
16,AGATTCAC,-0.0229
17,CAAAAAAA,-0.147
18,CATCAGCG,-0.105
19,ACGTGTTC,-0.0369
20,TACGCTAA,0.123
21,TATATGGA,-0.0455
22,AGTTCCAC,0.0665
23,CGTCCGTA,0.295
24,ACCTAGAT,-0.0752

row,Sequence,PBM E-score
1,CAACAATC,0.0154
2,CTTGTCCA,-0.188
3,CTTATTTA,0.099
4,TAGGCCGA,-0.143
5,AAAAGGTC,0.00104
6,CAACATGC,0.122
7,CTGTTTTA,-0.0614
8,CGAGTGGA,0.188
9,GCACCGGA,0.174
10,CCAATACC,-0.128
11,CACGTACG,0.338
12,AGACGGTC,-0.121
13,TGAGAGAA,-0.0473
14,CAACTCGC,0.236
15,CCCTCTAA,-0.292
16,ATAGCGAA,0.0726
17,GTCACAGA,-0.0622
18,CCGCGCCG,0.0837
19,CCCGAGTC,0.0619
20,ATGATGCG,0.0273
21,CAACGTGA,-0.187
22,TACGTTCA,0.276
23,CACACCAC,0.0355
24,AATCCTTC,-0.117

row,Sequence,PBM E-score
1,GTTTGTTA,0.225
2,ATGCGCGG,-0.136
3,AAACTGCG,-0.0389
4,ATGGCAGA,0.0231
5,ATTGATCG,0.139
6,CCATCTTC,-0.0447
7,TCACAGGA,-0.0635
8,TACATATA,0.142
9,AGACTAGA,-0.0514
10,TGTTGTAA,0.00693
11,ACACCAAC,-0.129
12,GGTCCGAA,0.193
13,ACGCTACA,-0.0355
14,GCGGAACC,-0.0442
15,ATAACTTG,-0.0707
16,TCCGTCAA,-0.0989
17,ATTTACAA,0.0448
18,AATAACCG,0.119
19,AATTTCAG,-0.252
20,CCTTGCCC,-0.0702
21,AGCCAAGG,-0.251
22,AAAACTTA,0.0265
23,CTAGTCGC,-0.0918
24,CTAGACAA,-0.156

row,Sequence,PBM E-score
1,CAGGAACA,-0.0447
2,ACGGCCCC,-0.2
3,ACAGCAAG,0.0222
4,GAAGCGGC,-0.0234
5,AACTAGCC,-0.299
6,GACGTGAA,-0.0611
7,AGGGGGGC,-0.266
8,CTACTCGA,0.2
9,AATTAGCA,-0.00156
10,TCACCGAA,-0.039
11,ACGTGATA,0.00631
12,AAAAAAGA,-0.283
13,CATACTCG,0.258
14,AGACAGCA,-0.143
15,ACCGAAAG,0.0863
16,AAGTGTTA,-0.0955
17,TACTACAA,0.0867
18,AGCGGACA,0.124
19,ACATAAAC,0.215
20,ATTAACGC,0.122
21,TCGCCAGA,0.00989
22,AATAAACC,0.165
